In PMC6720459:
Positions count from the first letter of the chain named. These are yes or no findings as the source states them, for the method shown. In cells and extracts the contact can be indirect. Some results given as binding are weak or reduced against the parent protein; the word gives no strength. For part of these data: Tags and fused reporters may be left off the sequences shown.

Sequences of proteins named here, by UniProt entry; tags and fusion partners are left off. A change or cut given only in a name is not applied to a line headed by its entry.
UniProt Q9HBA0: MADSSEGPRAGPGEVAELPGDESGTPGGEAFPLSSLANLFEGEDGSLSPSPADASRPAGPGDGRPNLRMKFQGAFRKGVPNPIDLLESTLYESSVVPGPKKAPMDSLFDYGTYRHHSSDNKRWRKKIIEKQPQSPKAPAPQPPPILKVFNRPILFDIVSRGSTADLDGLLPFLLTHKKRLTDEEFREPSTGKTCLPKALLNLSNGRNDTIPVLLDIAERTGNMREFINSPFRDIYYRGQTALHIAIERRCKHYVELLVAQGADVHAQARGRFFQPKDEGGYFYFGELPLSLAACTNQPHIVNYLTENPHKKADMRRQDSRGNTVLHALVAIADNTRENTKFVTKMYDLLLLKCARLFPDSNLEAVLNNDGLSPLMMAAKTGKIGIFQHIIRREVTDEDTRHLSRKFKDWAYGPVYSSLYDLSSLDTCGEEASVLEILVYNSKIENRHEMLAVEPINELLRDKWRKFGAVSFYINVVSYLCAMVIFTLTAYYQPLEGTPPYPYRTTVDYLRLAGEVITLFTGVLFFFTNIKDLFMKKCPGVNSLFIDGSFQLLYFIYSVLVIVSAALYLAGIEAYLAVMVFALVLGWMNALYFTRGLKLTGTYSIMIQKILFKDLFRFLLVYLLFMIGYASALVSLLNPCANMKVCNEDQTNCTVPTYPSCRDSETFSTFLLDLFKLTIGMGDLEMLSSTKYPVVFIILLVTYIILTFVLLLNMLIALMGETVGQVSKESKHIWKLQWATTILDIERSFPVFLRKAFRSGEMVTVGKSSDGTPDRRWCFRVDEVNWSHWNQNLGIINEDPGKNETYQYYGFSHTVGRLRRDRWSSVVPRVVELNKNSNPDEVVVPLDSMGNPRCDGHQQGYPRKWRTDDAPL
UniProt Q9CQ22: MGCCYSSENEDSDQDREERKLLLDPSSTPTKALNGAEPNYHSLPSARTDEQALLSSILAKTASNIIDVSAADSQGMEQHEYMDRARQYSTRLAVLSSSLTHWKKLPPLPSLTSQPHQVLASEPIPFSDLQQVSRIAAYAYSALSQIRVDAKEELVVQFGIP
UniProt P38606: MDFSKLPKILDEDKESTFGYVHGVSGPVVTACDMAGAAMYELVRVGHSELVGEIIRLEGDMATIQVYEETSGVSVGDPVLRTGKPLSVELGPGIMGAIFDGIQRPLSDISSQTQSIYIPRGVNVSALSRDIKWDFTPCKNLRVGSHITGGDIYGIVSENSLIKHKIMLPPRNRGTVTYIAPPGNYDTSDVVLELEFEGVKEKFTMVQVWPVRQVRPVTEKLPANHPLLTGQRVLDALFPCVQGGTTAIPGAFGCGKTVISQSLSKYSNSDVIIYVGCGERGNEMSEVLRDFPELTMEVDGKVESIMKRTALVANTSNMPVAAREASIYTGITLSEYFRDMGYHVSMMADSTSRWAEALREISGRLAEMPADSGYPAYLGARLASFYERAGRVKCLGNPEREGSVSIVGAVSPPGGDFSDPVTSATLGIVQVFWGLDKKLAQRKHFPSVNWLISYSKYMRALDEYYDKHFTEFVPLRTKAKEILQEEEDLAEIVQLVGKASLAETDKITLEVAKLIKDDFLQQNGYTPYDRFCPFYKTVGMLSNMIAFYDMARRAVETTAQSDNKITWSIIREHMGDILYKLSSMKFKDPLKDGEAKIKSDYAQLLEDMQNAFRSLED
UniProt Q704Y3: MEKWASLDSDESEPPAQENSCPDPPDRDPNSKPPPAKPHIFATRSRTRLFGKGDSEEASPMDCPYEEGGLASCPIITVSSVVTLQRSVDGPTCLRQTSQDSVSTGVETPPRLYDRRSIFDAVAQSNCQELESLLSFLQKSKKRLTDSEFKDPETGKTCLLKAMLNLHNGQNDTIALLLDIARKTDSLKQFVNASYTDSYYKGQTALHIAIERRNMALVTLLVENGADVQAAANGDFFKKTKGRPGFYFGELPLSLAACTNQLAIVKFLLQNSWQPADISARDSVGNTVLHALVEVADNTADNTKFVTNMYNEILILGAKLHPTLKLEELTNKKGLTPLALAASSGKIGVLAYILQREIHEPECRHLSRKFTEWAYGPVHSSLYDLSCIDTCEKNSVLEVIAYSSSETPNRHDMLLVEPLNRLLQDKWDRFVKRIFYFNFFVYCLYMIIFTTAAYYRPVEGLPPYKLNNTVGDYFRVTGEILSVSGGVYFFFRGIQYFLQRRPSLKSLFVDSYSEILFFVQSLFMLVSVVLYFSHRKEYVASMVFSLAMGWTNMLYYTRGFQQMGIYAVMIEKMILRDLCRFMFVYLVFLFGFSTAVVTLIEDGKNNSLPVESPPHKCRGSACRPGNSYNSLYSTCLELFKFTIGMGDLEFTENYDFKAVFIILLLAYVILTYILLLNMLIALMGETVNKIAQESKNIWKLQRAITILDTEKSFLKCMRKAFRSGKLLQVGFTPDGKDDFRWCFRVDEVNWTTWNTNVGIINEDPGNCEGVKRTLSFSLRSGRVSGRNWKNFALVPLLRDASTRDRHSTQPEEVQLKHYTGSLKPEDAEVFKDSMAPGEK
UniProt Q9EPK8: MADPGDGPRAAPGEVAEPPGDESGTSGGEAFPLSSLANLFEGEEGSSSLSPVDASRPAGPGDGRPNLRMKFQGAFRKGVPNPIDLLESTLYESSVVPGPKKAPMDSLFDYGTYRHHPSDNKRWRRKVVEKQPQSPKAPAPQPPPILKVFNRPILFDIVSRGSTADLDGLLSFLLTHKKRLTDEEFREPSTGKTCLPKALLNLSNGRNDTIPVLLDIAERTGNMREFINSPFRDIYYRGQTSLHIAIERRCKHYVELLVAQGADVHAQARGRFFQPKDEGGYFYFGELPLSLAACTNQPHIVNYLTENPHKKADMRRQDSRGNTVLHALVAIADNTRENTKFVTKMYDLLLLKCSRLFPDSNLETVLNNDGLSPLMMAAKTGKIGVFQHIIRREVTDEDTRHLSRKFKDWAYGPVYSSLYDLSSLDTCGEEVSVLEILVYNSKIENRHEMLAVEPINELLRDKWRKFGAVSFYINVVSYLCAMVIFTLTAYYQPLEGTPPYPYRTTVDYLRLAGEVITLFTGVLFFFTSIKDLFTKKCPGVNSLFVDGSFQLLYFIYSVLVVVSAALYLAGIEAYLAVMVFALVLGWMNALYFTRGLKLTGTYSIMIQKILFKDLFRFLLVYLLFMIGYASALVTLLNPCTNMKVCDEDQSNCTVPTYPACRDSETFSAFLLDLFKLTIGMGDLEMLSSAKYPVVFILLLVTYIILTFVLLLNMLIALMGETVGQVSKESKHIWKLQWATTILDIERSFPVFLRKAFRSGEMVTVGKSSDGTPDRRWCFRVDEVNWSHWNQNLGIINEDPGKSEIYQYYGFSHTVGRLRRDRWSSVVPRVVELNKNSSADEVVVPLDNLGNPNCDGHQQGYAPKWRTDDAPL

What was measured:
FLAG-ALDOA (human) = molecular target: T1, FLAG-ALDOA (human) (UniProt P04075); experiment: co-IP; two-step coIP of FLAG-ALDOA, Myc-TRPV4 and HA-v-ATPase from glucose-starved HEK293T cells, immunoblot
T1 sequence: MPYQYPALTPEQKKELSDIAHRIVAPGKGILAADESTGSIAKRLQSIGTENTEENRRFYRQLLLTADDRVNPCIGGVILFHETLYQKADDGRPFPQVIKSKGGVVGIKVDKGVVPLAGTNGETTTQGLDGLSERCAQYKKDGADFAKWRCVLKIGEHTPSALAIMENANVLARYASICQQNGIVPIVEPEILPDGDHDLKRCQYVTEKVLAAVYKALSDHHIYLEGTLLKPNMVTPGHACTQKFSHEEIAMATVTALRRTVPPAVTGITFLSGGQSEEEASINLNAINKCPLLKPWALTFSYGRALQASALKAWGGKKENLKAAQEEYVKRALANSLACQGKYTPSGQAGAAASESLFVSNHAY

Myc-TRPV4 (human) = Myc-TRPV4 (human) (UniProt Q9HBA0); experiment: as above
[1] = molecular target: T2, endogenous aldolase of MEFs (represented by ALDOA) (mouse (endogenous in MEFs)) (UniProt P05064); experiment: co-IP; endogenous proteins; lysates of 2-h glucose-starved MEFs (wild type or TRPV-QKO) in ODG buffer; aldolase or TRPV4 immunoprecipitated overnight, protein A/G beads; samples without or with 10 μM FBP and/or 0.5 μM CaCl2 (the losses told for FBP and CaCl2 are a6 and a7)
T2 sequence: T1 sequence with Y3H, Q4P, I222V, H246N, I268V, V329I, A349S, V359I

[2] = molecular target: T3, ALDOA, ectopically expressed (FLAG- or HA-tagged) (human) (UniProt P04075); experiment: co-IP; FLAG- and HA-tagged TRPV and aldolase co-transfected in HEK293T; lysis in ODG buffer (50 mM Tris-HCl pH 8.0, 50 mM NaCl, 2% ODG); anti-FLAG M2 gel 4 h at 4 °C; elution with FLAG peptide; immunoblot
T3 sequence: T1 sequence

[3] = molecular target: T4, ALDOB, ectopically expressed (FLAG- or HA-tagged) (UniProt P05062); experiment: as above
T4 sequence: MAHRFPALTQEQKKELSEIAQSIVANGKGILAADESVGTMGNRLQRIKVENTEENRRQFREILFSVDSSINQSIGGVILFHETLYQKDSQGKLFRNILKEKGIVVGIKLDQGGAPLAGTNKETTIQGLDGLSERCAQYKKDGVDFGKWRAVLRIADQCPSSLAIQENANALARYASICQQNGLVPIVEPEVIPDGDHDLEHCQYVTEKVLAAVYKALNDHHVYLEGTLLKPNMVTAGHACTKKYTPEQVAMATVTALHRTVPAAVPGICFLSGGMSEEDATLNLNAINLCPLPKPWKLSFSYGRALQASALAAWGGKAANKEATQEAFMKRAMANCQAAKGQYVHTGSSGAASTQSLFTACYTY

[4] = molecular target: T5, ALDOC, ectopically expressed (FLAG- or HA-tagged) (UniProt P09972); experiment: as above
T5 sequence: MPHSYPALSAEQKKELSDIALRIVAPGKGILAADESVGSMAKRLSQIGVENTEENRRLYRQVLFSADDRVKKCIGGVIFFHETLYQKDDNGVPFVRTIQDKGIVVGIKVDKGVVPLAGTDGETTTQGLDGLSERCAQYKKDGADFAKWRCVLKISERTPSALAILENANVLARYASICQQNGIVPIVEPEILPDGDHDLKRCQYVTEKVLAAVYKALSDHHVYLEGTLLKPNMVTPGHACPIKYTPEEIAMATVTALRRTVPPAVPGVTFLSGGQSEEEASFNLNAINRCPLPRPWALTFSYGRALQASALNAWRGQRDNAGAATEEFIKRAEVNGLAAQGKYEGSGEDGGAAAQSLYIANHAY

[5] = molecular target: T2, endogenous aldolase of MEFs (represented by ALDOA) (mouse (endogenous in MEFs)); experiment: co-IP; as a5, lysates of glucose-starved MEFs mixed with 10 μM FBP
[6] = molecular target: T2, endogenous aldolase of MEFs (represented by ALDOA) (mouse (endogenous in MEFs)); experiment: co-IP; light organelles from 2-h glucose-starved MEFs, no FBP added; aldolase immunoprecipitated, immunoblot of endogenous TRPV4
[7] = molecular target: T2, endogenous aldolase of MEFs (represented by ALDOA) (mouse (endogenous in MEFs)); experiment: co-IP; light organelles from 2-h glucose-starved MEFs with FBP added at 10 μM and above; aldolase immunoprecipitated, immunoblot of endogenous TRPV4
[8] = molecular target: endogenous LAMTOR1 of MEFs (mouse (endogenous in MEFs)) (UniProt Q9CQ22); experiment: co-IP; endogenous LAMTOR1 immunoprecipitated from MEFs in ODG buffer; cells regularly cultured, glucose-starved, treated with 100 μM BAPTA-AM for 30 min, or TRPV-QKO
[9] = molecular target: endogenous LAMTOR1 of MEFs (mouse (endogenous in MEFs)) (UniProt Q9CQ22); experiment: co-IP; light organelles from 2-h glucose-starved MEFs incubated with 10 μM FBP with or without 500 μM BAPTA at 37 °C, then with cytosol; lysis in ODG buffer; endogenous LAMTOR1 immunoprecipitated

Q: What does the source list for “HA-v-ATPase (represented by its V1A, V1B2, v0d1, and V1D subunits) (from UniProt P38606 1-617; P21281 1-511; P61421 1-351; Q9Y5K8 1-247) (complex)”?
A: binding (FLAG-ALDOA (human)): binds; binding (Myc-TRPV4 (human)): binds

Q: How did the binding [1] turn out when “endogenous TRPV1 of MEFs (from UniProt Q704Y3 1-839)” was run?
A: binds

Q: With “TRPV4, ectopically expressed (FLAG- or HA-tagged) (from UniProt Q9HBA0 1-871)” as the molecule, how does the binding [2] read?
A: binds

Q: What about the binding [3] of the same molecule?
A: binds

Q: And the binding [4]?
A: binds

Q: How did the binding (FLAG-ALDOA (human)) turn out when Myc-TRPV4 (from UniProt Q9HBA0 1-871) was run?
A: binds

Q: For “TRPV1, ectopically expressed (FLAG- or HA-tagged) (from UniProt Q704Y3 1-839)”, which binding [2] is on record?
A: binds

Q: TRPV4-K535A (from UniProt Q9HBA0 1-871) was tested. Which binding [2] did it give?
A: no binding

Q: With “endogenous TRPV4 of MEFs (from UniProt Q9EPK8 1-871)” as the molecule, how does the binding [5] read?
A: no binding (condition: with 10 μM FBP)

Q: And the binding [6]?
A: binds

Q: And the binding [7]?
A: no binding (condition: with 10 μM (and above) FBP)

Q: And the binding [1]?
A: binds

B1: endogenous LKB1 of MEFs (protein, UniProt Q9WTK7 1-436)
chain: MDVADPEPLGLFSEGELMSVGMDTFIHRIDSTEVIYQPRRKRAKLIGKYLMGDLLGEGSYGKVKEVLDSETLCRRAVKILKKKKLRRIPNGEANVKKEIQLLRRLRHRNVIQLVDVLYNEEKQKMYMVMEYCVCGMQEMLDSVPEKRFPVCQAHGYFRQLIDGLEYLHSQGIVHKDIKPGNLLLTTNGTLKISDLGVAEALHPFAVDDTCRTSQGSPAFQPPEIANGLDTFSGFKVDIWSAGVTLYNITTGLYPFEGDNIYKLFENIGRGDFTIPCDCGPPLSDLLRGMLEYEPAKRFSIRQIRQHSWFRKKHPLAEALVPIPPSPDTKDRWRSMTVVPYLEDLHGRAEEEEEEDLFDIEDGIIYTQDFTVPGQVLEEEVGQNGQSHSLPKAVCVNGTEPQLSSKVKPEGRPGTANPARKVCSSNKIRRLSACKQQ
Q: With B1 as the molecule, how does the binding [8] read?
A: binds

Q: What about the binding [9] of the same molecule?
A: binds
